Measured values as given in PubChem BioAssay AID2546 (National Center for Advancing Translational Sciences (NCATS), 2010).
The whole screen tested about 310,000 compounds, of which about 11,000 (3.5%) were called active. This list was built around the results that the source calls inconclusive (neither active nor inactive); the mix of calls is not that of the screen. The call rests on the fitted dose curve; in most records, active means well fitted inhibition curve with a large enough effect; inconclusive means small, poorly fitted or top-dose-only effect, or effect the other way; inactive means flat fitted curve, though single readings scatter. Potencies of inconclusive entries are left out as doubtful fits.

Test: VP16 counterscreen qHTS for inhibitors of ROR gamma transcriptional activity;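 further: Gal4-VP16 expression switched on by copper sulfate through the metallothionein promoter; nearly all actives have a fitted effect of over 50% in size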
Details: Drosophila S2 Gal4-VP16 UAS-luciferase, luminescence, 20 h; activity, negative = inhibition: at 53.6 µM (top of the series)
On the % scale 0 is the no-effect control and ±100 the full control effect; potency means the concentration at half of the fitted maximal effect; tags describe the fitted curve by direction and shape.

Row | Compound | Potency | activity, negative = inhibition
1 | O=[N+]([O-])c1cc(-n2cnnn2)ccc1N1CCC(Cc2ccccc2)CC1 | inconclusive [inhibitor, single point] | 
2 | Cc1ccc(C(=O)Nn2cnc3ccccc3c2=O)cc1C |  | inactive: 20.5%
3 | COc1cccc(OC)c1OCCCOc1ccc(C)cc1Br | inconclusive [inhibitor, single point] | 
4 | COc1ccc(N2CCC(CNC(=S)Nc3ccc(C)cc3C)C2)cc1 (stereo unspecified) | inconclusive [inhibitor, partial curve, poor fit] | 
5 | C=CCn1c(C)c(C(C)=O)c(N2CCN(C(c3ccccc3)c3ccccc3)CC2)nc1=S | inconclusive [inhibitor, single point] | 
6 | CC1CCN(S(=O)(=O)c2ccc(Oc3ccc([N+](=O)[O-])cc3)cc2)CC1 | inconclusive [inhibitor, single point] | 
7 | CNC(=O)C1CCN(S(=O)(=O)c2c(C)noc2/C=C/c2cccc(C)c2)CC1 |  | inactive: 4.05%
8 | COc1cc(NC(=O)c2ccccc2)c(OC)cc1NC(=O)Cc1ccc(C)cc1 | inconclusive [inhibitor, single point] | 
9 | Cn1c(SCC(N)=O)nnc1-c1ccc(C(C)(C)C)cc1 | inconclusive [inhibitor, partial curve] | 
10 | CC1CCN(C(=O)c2ccc3c(c2)OCCO3)CC1 | inconclusive [inhibitor, single point] | 
11 | O=C(COc1ccc([N+](=O)[O-])cc1)Nc1ccc(CN2CCOCC2)cc1 |  | inactive: -1.76%
12 | C=CCN1C(=O)/C(=c2\sc3nc(=O)c(Cc4ccccc4Cl)nn3c2=O)c2ccccc21 | inconclusive [inhibitor, single point] | 
13 | S=c1[nH]nc(-c2ccc(Cl)cc2Cl)n1-c1ccc(Cl)cc1 | inconclusive [inhibitor, partial curve] | 
14 | O=C(CN1C(=O)/C(=C\c2cccc(Br)c2)Oc2ccccc21)NCCCN1CCOCC1 | inconclusive [inhibitor, single point] | 
15 | O=C(CSc1nnc(-c2ccc3c(c2)OCO3)o1)Nc1ncc(Cl)cc1Cl | active: 0.562 µM | 
16 | Cc1nc(Nc2ccc(Cl)cc2)c2oc3ccccc3c2n1 | inconclusive [inhibitor, single point] | 
17 | CCN(CC)CCn1c(NCc2cccc(OC)c2OC)nc2ccccc21 |  | inactive: 17%
18 | COc1c2ccoc2c(OC(C)=O)c2oc(C)cc(=O)c12 |  | inactive: 3.36%
19 | C=CCn1c(COc2ccc(Cl)cc2)nnc1SCc1ccc(C#N)cc1 |  | inactive: 2.47%
20 | N#C/C(=C(/O)COc1cccc2ccccc12)c1nc2ccccc2[nH]1 | active: 7.94 µM | 
21 | COc1ccc(-c2nn(C)c(=O)c3ccccc23)cc1CNC(=O)c1ccco1 | inconclusive [activator, single point] | 
22 | COc1cccc(-c2nc(CS(=O)(=O)CC(=O)NCC(C)c3ccccc3)c(C)o2)c1 (stereo unspecified) | inconclusive [inhibitor, partial curve, poor fit] | 
23 | COc1ccc(OC)c(Nc2nc(NCc3ccco3)c3ccccc3n2)c1 | inconclusive [inhibitor, single point] | 
24 | O=C(O)c1cc(N/N=C/C=C/c2ccccc2[N+](=O)[O-])ccc1Cl | inconclusive [activator, full curve, poor fit] | 

Row | Compound | Potency | activity, negative = inhibition
25 | CCOc1cc(/C=C2/C(=N)N3C=CSC3=NC2=O)ccc1OCCCOc1ccccc1C | inconclusive [inhibitor, single point] | 
26 | CC(=O)Oc1ccc(OC(C)=O)c2c1CC(C)=C(C)C2 | inconclusive [inhibitor, single point] | 
27 | O=C(Nc1cccc(S(=O)(=O)N2CCOCC2)c1)c1ccc(Cl)c([N+](=O)[O-])c1 | inconclusive [inhibitor, single point] | 
28 | CCN(C1CCCCC1)S(=O)(=O)c1ccc(S(=O)(=O)NCc2ccncc2)cc1 | active: 17.8 µM | 
29 | COc1ccc(N=C2NN=C(c3c(C)[nH]c4ccccc34)CS2)cc1 |  | inactive: 2.62%
30 | CCOC(=O)c1c(N)sc(C(C)=O)c1C | inconclusive [activator, single point] | 
31 | CC(=O)c1cccc(NC(=S)Nc2ccn(Cc3cccc4ccccc34)n2)c1 | active: 5.01 µM | 
32 | O=C(O)c1ccc(/C=C/c2ccc3cccc(O)c3n2)cc1 | active: 0.562 µM | 
33 | COC(=O)C(Cc1ccccc1)NS(=O)(=O)c1cc(Br)ccc1Br (stereo unspecified) |  | inactive: 6.63%
34 | N#Cc1c(SCC(=O)Nc2ccc(C(F)(F)F)cc2)sc2c(O)cc(=O)[nH]c12 |  | inactive: -1.08%
35 | O=C(NN=C1CCCC1)c1ccccc1O | inconclusive [inhibitor, single point] | 
36 | CCc1cccc2c(C(=O)COC(=O)/C=C/c3ccccc3OC)c[nH]c12 | inconclusive [inhibitor, partial curve] | 
37 | CN1CCN(c2ncc3nc(-c4cc(F)cc(F)c4)c(=O)n(C4CC4)c3n2)CC1 | inconclusive [inhibitor, single point] | 
38 | Oc1ccc(Cl)cc1/C=C/c1ccc2cccc(O)c2n1 | active: 4.47 µM | 
39 | Cc1cnc(NC(=O)c2cccs2)s1 | inconclusive [inhibitor, single point] | 
40 | CCC1(C)Cc2c(sc3nc(NN)n(C)c(=O)c23)CO1 (stereo unspecified) | active: 14.1 µM | 
41 | C=CCn1c(SCC(C)=O)nc2scc(-c3ccco3)c2c1=O | inconclusive [inhibitor, single point] | 
42 | COC1(OC)N=C(N)C2(C#N)C(c3ccc4c(c3)OCO4)C12C#N (stereo unspecified) |  | inactive: -6.22%
43 | N#Cc1c(-c2cccs2)cc(-c2ccccn2)nc1N | active: 7.94 µM | 
44 | COc1cc(-c2n[nH]c(=S)n2C(C)c2ccccc2)cc(OC)c1OC (stereo unspecified) | active: 12.6 µM | 
45 | O=C(Nc1ccccc1)Nc1cc(Cl)cc(Cl)c1 | inconclusive [inhibitor, single point] | 
46 | Cc1ccc(C(C)NC(=O)c2cc(C)oc2C)cc1 (stereo unspecified) |  | inactive: -5.53%
47 | O=C(/C=C/c1ccco1)c1ccc(NC(=O)C23CC4CC(CC(C4)C2)C3)cc1 | inconclusive [inhibitor, single point] | 
48 | Oc1cccc2ccc(/C=C/c3c(F)cccc3Cl)nc12 | inconclusive [inhibitor, partial curve] | 

Row | Compound | Potency | activity, negative = inhibition
49 | CCOC(=O)c1sc(NC(=O)CSc2n[nH]c(-c3ccccc3)n2)c(C#N)c1C | active: 5.62 µM | 
50 | Nn1cnnc1N/N=C/c1ccccc1C(F)(F)F |  | inactive: -4.86%
51 | Oc1ccc(Nc2nc3ccccc3nc2Nc2ccc(O)cc2)cc1 | inconclusive [inhibitor, single point] | 
52 | O=C(NCc1ccc2c(c1)OCO2)c1cc(COc2c(F)cccc2F)on1 | inconclusive [activator, single point] | 
53 | O=C(NC(NC(=S)Nc1ccc(Cl)cc1Cl)C(Cl)(Cl)Cl)c1cccc([N+](=O)[O-])c1 (stereo unspecified) | inconclusive [inhibitor, single point] | 
54 | Cc1c(NC(=O)c2ccc([N+](=O)[O-])o2)cccc1-c1nc2ncccc2o1 | inconclusive [inhibitor, single point] | 
55 | Cc1ccc(NC(=O)CSC2=Nc3ccccc3C3CC=NN23)c(C)c1 (stereo unspecified) | inconclusive [inhibitor, single point] | 
56 | CC(C)C(=O)N1CCN(c2ccc(NC(=O)c3ccc4c(c3)OCCO4)cc2Cl)CC1 |  | inactive: 0.712%
57 | N#C/C(=C(\O)c1cc(Cl)sc1Cl)c1nc2ccccc2[nH]1 | inconclusive [inhibitor, partial curve] | 
58 | Cc1ccc2oc(=O)c(/C=C(\O)c3ccco3)nc2c1 | inconclusive [inhibitor, partial curve] | 
59 | CCS(=O)(=O)n1nc(-c2ccc(Cl)cc2)nc1SC | inconclusive [inhibitor, single point] | 
60 | COc1cccc2oc(SC)cc(=O)c12 | inconclusive [inhibitor, single point] | 
61 | Cc1onc(-c2c(F)cccc2Cl)c1C(=O)Nc1nccs1 | inconclusive [inhibitor, partial curve, poor fit] | 
62 | COc1ccc(-c2cn(-c3ccc(C)c(C)c3)c(=S)[nH]2)cc1OC | active: 12.6 µM | 
63 | Cc1cc(C(=O)NCc2cccs2)ccc1[N+](=O)[O-] | inconclusive [activator, full curve] | 
64 | O=C(CCl)Nc1cccc(S(=O)(=O)NC2=NCCC2)c1 | inconclusive [inhibitor, single point] | 
65 | N#CC1=C(N)NC(=S)C(C(N)=O)C1c1ccc(Cl)cc1Cl (stereo unspecified) | inconclusive [inhibitor, single point] | 
66 | Cc1sc(NC(=O)Cn2[nH]c(=O)c3ccccc3c2=O)nc1-c1ccccc1 | inconclusive [inhibitor, single point] | 
67 | CC(NC(=O)Nc1ccc(Cl)c(Cl)c1)C(c1ccccc1)N1CCOCC1 (stereo unspecified) | inconclusive [inhibitor, single point] | 
68 | COC(=O)C1=C(C)N(C)C(=S)NC1c1cc(OC)ccc1OC (stereo unspecified) | inconclusive [inhibitor, single point] | 
69 | CCOc1ccc(-n2c(N)c(-c3nc4ccccc4n3C)c3nc4ccccc4nc32)cc1 | active: 1.26 µM | 
70 | O=c1[nH][nH]c(-c2ccccc2O)c1C(C[N+](=O)[O-])c1ccc(Br)cc1 (stereo unspecified) | inconclusive [inhibitor, single point] | 
71 | Cc1ccc(Cl)cc1N1CCN(C(=O)c2cc3c(=O)[nH]c4ccccc4c3n2C)CC1 |  | inactive: 1.36%
